This is one part of the list.
Molecular target: no compound (DMSO)
Test: log2 fold change of degron read counts, EGFP-low vs EGFP+ sorted cells; higher = lower degron-EGFP level without compound (poor expression or instability)
Conditions: compound: DMSO control; 18 h
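Further: jurkat cells carrying a lentiviral library of mutant zinc finger degrons fused to EGFP plus mCherry, mCherry+ cells FACS sorted, degron abundance counted by next-generation sequencing.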

Row | Sequence | log2 fold change of degron read counts
1 | FECPQCGAIFTQKGNLLRHIKL | 0.0482
2 | LWCEICGFTCTQKGNLLRHIKL | 1.02
3 | LECPICGFTCTQKGNLLRHIKL | -0.383
4 | FNCPVCGAKFTQKGNLLRHIKL | -0.0798
5 | FHCEICGRWFTQKGNLLRHIKL | -0.4
6 | FICEVCGALFTQKGNLLRHIKL | -0.722
7 | FFCEICGHIFTQKGNLLRHIKL | 1.03
8 | FDCNVCGARFTQKGNLLRHIKL | -0.858
9 | LVCNQCGFSCTQKGNLLRHIKL | 0.0792
10 | FDCEQCGAQFTQKGNLLRHIKL | -1.66
11 | FDCPICGRTFTQKGNLLRHIKL | -0.82
12 | FWCEICGHIFTQKGNLLRHIKL | 1.1
13 | FHCEICGHQFTQKGNLLRHIKL | -1.79
14 | FVCDICGAQFTQKGNLLRHIKL | -2.96

Source: the supplement of paper PMC12645437, “Orthogonal IMiD-Degron Pairs Induce Selective Protein Degradation in Cells” (ACS Chemical Biology, 2025)
